The values below come from patent EP4345091A1, “BENZOIC ACID DERIVATIVES, METHODS AND USES THEREOF” (priority 2022, dated 2024).

A short description of this data set: Stability in human plasma (enzymatic hydrolysis). The following applies: 37°C, substrate 5×10^-4M with 2% ACN; for 1/2: half-life in human plasma diluted to 80%; for kobs × 100: human plasma diluted to 80%, 72h, values are kobs × 100.

In the case of `CCCCOC(=O)c1ccccc1` [Compound 1a, Butyl benzoate], the 1/2 was determined as 1.59 ± 0.21 h and the “kobs × 100” value was 44.1 ± 6.1 h^-1.

For `CCCCCCOC(=O)c1ccccc1` [Compound 1b, Hexyl benzoate], the 1/2 came to 6.00 ± 0.61 h and the “kobs × 100” value came out at 11.6 ± 1.2 h^-1.

Take `CCCCCCCCOC(=O)c1ccccc1` [Compound 1c, Octyl benzoate]: the 1/2 is reported as 26.1 ± 2.4 h and the “kobs × 100” value worked out at 2.66 ± 0.23 h^-1.

Take `CCCCCCCCOC(=O)c1ccc([N+](=O)[O-])cc1` [Compound 2c, Octyl 4-nitrobenzoate]: the 1/2 amounted to 7.18 ± 0.9 h and the “kobs × 100” value is listed as 9.73 ± 1.20 h^-1.

In the case of `CCCCOC(=O)c1cc([N+](=O)[O-])cc([N+](=O)[O-])c1` [Compound 3a], the 1/2 is given as 8.59 ± 0.31 h and the “kobs × 100” value stood at 8.08 ± 0.29 h^-1.

On to `CCCCCCOC(=O)c1cc([N+](=O)[O-])cc([N+](=O)[O-])c1` [Compound 3b], for which the 1/2 was found to be 12.3 ± 1.0 h and the “kobs × 100” value is 5.68 ± 0.47 h^-1.

With `CCCCCCCCOC(=O)c1cc([N+](=O)[O-])cc([N+](=O)[O-])c1` [Compound 3c], the 1/2 is listed as 19.9 ± 2.6 h and the “kobs × 100” value is 3.53 ± 0.44 h^-1.

Turning to `CCCCCCCCCCOC(=O)c1cc([N+](=O)[O-])cc([N+](=O)[O-])c1` [Compound 3d, Decyl 3,5-dinitrobenzoate], the 1/2 came out at 71.0 ± 4.7 h and the “kobs × 100” value came to 0.98 ± 0.07 h^-1.

For the molecule `CCCCCCCCCCCCOC(=O)c1cc([N+](=O)[O-])cc([N+](=O)[O-])c1` [Compound 3e], the 1/2 was 78.4 ± 11.7 h and the “kobs × 100” value is recorded as 0.89 ± 0.13 h^-1.

As for `CCCCCCCCCCCCCCOC(=O)c1cc([N+](=O)[O-])cc([N+](=O)[O-])c1` [Compound 3f], the 1/2 is 74.1 ± 18.7 h and the “kobs × 100” value is recorded as 0.97 ± 0.23 h^-1.

Take `CCCCOC(=O)c1cc([N+](=O)[O-])cc(C(F)(F)F)c1` [Compound 4a, Butyl 3-nitro-5-(trifluoromethyl)benzoate]: the 1/2 is recorded as 5.63 ± 0.88 h and the “kobs × 100” value was 12.5 ± 1.8 h^-1.

Regarding `CCCCCCOC(=O)c1cc([N+](=O)[O-])cc(C(F)(F)F)c1` [Compound 4b, Hexyl 3-nitro-5-(trifluoromethyl)benzoate], the 1/2 turned out to be 12.0 ± 2.4 h and the “kobs × 100” value is listed as 5.96 ± 1.28 h^-1.

For the molecule `CCCCCCCCOC(=O)c1cc([N+](=O)[O-])cc(C(F)(F)F)c1` [Compound 4c, Octyl 3-nitro-5-(trifluoromethyl)benzoate], the 1/2 was 30.1 ± 0.9 h and the “kobs × 100” value worked out at 2.30 ± 0.06 h^-1.

For `CCCCCCCCCCOC(=O)c1cc([N+](=O)[O-])cc(C(F)(F)F)c1` [Compound 4d, Decyl 3-nitro-5-(trifluoromethyl)benzoate], the 1/2 was 55.0 ± 1.7 h and the “kobs × 100” value worked out at 1.26 ± 0.04 h^-1.
